Measured values from PubChem BioAssay (NCATS).
“And” between values parts separate entries of the source, which are not always exact repeats. Identical values can stand only once. Inconclusive means that the source gave no clear call. Such entries were picked first, then a sample of the others. For some of these results: Where the call is inconclusive, the potency comes from a doubtful curve fit. The source made the active and inactive calls. Unless noted, the call rests on the fitted dose curve; in most records, active means well fitted curve in either direction with a large enough effect (not every such curve was filed as active); inconclusive means small, poorly fitted or top-dose-only effect, or another doubt; inactive means flat fitted curve, though single readings scatter.

Tests used:
[1] = AP1 Signaling Pathway (AID 357); conditions: ME-180 AP-1-bla reporter, EGF-induced, beta-lactamase ratio, 5 h;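 further: ME-180 reporter cells stimulated with EGF at its EC50 level; top concentration of the series differs between compounds; on the % scale 0 is the no-effect control and ±100 the full control effect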
Procedure, shortened: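 A ratiometric CCF4 readout (405 nm excitation; 460 and 530 nm emission) quantified AP-1-driven beta-lactamase in ME-180 cells after 5 h with compound and EC50 EGF; AC50 values were derived for activators and inhibitors.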

[2] = NFAT Signaling Pathway (AID 444); conditions: Jurkat NFAT-bla M1, carbachol, beta-lactamase ratio, 5 h;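 further: carbachol stimulus at about its EC50 of 1 µM final; on the % scale 0 is the no-effect control and ±100 the full control effect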
Procedure, shortened: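 Read-out: CCF4 FRET ratio (460 nm/530 nm) after 1 h RT dye loading, used for %activity and AC50 from titration series. Cells: Jurkat NFAT-β-lactamase/M1 line, treated with compound plus 1 uM carbachol for 5 h, 37 °C.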

[3] = Stat Signaling Pathway (AID 446); conditions: ME-180 (cervical carcinoma) SIE beta-lactamase reporter, IL-6 stimulated, 5 h;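 further: ME-180 cervical cancer cells given 40 pM IL-6 alongside compound; SIE-controlled beta-lactamase reporter measured as 460/530 nm FRET emission ratio; top concentration of the series differs between compounds; on the % scale 0 is the no-effect control and ±100 the full control effect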
Procedure, shortened: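 IL-6/STAT signaling read in ME-180 cells via an SIE beta-lactamase reporter. Stimulus was 40 pM IL-6 (its AC50) for 5 hrs, so both activation and inhibition register.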

[4] = target: Cytochrome P450 1A2 (Homo sapiens) (UniProt P05177); assay: p450-cyp1a2 (AID 410; calls by dose curve; further: potency means the concentration at half of the fitted maximal effect;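 on activity change, negative = inhibition: top concentration of the series differs between compounds; -100% = full effect of reference inhibitor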); conditions: recombinant CYP1A2, luciferin-ME demethylation, luminescence; series mostly up to 57 µM
Chain of UniProt P05177 (P05177 whole entry, looked up): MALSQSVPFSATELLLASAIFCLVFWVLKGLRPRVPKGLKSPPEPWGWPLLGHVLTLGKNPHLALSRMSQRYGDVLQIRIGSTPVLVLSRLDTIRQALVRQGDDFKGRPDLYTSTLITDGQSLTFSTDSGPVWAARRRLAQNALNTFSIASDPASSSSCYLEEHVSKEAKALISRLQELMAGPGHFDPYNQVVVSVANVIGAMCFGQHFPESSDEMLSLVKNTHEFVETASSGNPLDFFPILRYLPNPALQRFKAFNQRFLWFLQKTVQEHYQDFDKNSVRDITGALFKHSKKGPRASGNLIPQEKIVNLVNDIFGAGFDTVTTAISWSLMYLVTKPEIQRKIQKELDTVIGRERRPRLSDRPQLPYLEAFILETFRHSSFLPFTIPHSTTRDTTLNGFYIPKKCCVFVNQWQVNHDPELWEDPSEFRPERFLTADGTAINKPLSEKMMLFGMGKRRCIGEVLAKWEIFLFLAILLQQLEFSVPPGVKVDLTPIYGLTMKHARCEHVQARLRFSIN
Procedure, shortened: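 20nM CYP1A2 with 100uM Luciferin-ME (at Km) in 100mM KPO4; compound preincubated 10 min, NADPH regeneration added, 60 min at room temperature. Luciferin quantified by luminescence after detection reagent; normalized to 57 uM furafylline.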

[5] = target: Mitogen-activated protein kinase 10 (Mus musculus) (UniProt Q61831); assay: JNK3 AlphaScreen Assay (AID 530); conditions: JNK3 lysate, c-Jun phosphorylation; activity change, negative = inhibition: at 57.1 µM (top of the series);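 further: kinase came from lysate of stimulated human HepG2 cells; signal reports phosphorylation of biotinylated GST-cJun 1-79 at Ser73 with 10 µM ATP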; further: potency means the concentration at half of the fitted maximal effect; on activity change, negative = inhibition: on the % scale 0 is the no-effect control and ±100 the full control effect
Procedure, shortened: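 Compound titrations were preincubated 15 minutes at room temperature with substrate, antibody and pre-activated JNK3-containing HepG2 lysate. Reactions were started with 10 uM ATP and stopped with EDTA-containing bead buffer for AlphaScreen detection.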

[6] = Cell Viability - Hek293 (AID 427;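 active means compounds whose dose-response curve shows a full or clear partial loss of cell viability, called from curve shape rather than a numeric limit; inconclusive means weak partial curves or an effect only at the top dose; inactive means no dose-dependent loss of viability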;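 further: potency means the concentration at half of the fitted maximal effect; cells exposed to compound for 40 hours at 37 °C before reading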); conditions: qHTS
Procedure, shortened: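 AC50 values derive from Hill-modelled concentration-response of ATP-based luminescence, normalized between DMSO-only and 100 uM tamoxifen controls. Cells were exposed in complete culture medium for 40 hr at 37 °C before detection.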

[7] = Cell Viability - SK-N-SH (AID 435; calls by dose curve;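 further: potency means the concentration at half of the fitted maximal effect; compound exposure lasted 40 h at 37 °C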); conditions: SK-N-SH neuroblastoma cell viability qHTS
Procedure, shortened: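 SK-N-SH human neuroblastoma cells (1500/well) were exposed to compounds in complete medium for 40 h at 37 °C, and intracellular ATP was then measured by CellTiter-Glo luminescence. AC50 was taken from Hill fits, normalized to DMSO and 100 uM tamoxifen.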

[8] = Cell Viability - HepG2 (AID 433; calls by dose curve;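 further: potency means the concentration at half of the fitted maximal effect; potency for ATP loss meaning cytotoxicity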); conditions: qHTS
Procedure, shortened: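 HepG2 hepatocellular carcinoma cells (1500/well) were treated with compounds for 40 h at 37 °C in complete medium; intracellular ATP was read by CellTiter-Glo luminescence. Data were normalized to DMSO and 100 uM tamoxifen, and AC50 came from Hill fits.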

[9] = Cell Viability - Jurkat (AID 426;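 active means dose-dependent loss of cell ATP signal giving a full or clear fitted curve, ranked by lower potency value; inconclusive means weak partial curve or response only at the top dose; inactive means no loss of viability signal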;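 further: potency means the concentration at half of the fitted maximal effect; cells exposed to compound for 40 hours at 37 °C before ATP read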); conditions: qHTS
Procedure, shortened: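 Jurkat (Clone E6-1) cells, 5000/well in complete medium, exposed to compounds for 40 hr at 37C; intracellular ATP measured by CellTiter-Glo luminescence after 20 min at room temperature. AC50 from Hill fits.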
Tags describe the fitted curve by direction and shape.

For O=C(O)c1cccnc1, the activity change, negative = inhibition ([1]; at 17.2 µM (top of the series)) was inconclusive: 18.1% [activator], the activity change, negative = inhibition ([2]; at 17.2 µM (top of the series)) was inactive: -4.12% and the activity, negative = inhibition ([3]; at 17.2 µM (top of the series)) was inactive: 3.94%.
With COc1ccc2nc(S(=O)Cc3ncc(C)c(OC)c3C)[nH]c2c1 (stereo not drawn) the Potency [4] was inconclusive: 31.6 µM [decreasing].
With CN(C)CCN(Cc1ccc(Cl)cc1)c1ccccn1 the activity change, negative = inhibition ([1]; at 17.2 µM (top of the series)) was inconclusive: 54.1% [activator] and the activity change, negative = inhibition ([2]; at 17.2 µM (top of the series)) was inconclusive: -55.5% [inhibitor].
For CC(Oc1ccc(O)cc1)(P(=O)(O)O)P(=O)(O)O, the Potency [4] was “inactive” and the Potency [5] was inconclusive: 31.6 µM [inhibitor, partial curve, poor fit].
With COc1ccc2c(c1)c(CC(=O)O)c(C)n2C(=O)c1ccc(Cl)cc1 the Potency [4] was inconclusive: 31.6 µM [decreasing] and inconclusive: 39.8 µM [decreasing], the Potency [6] was inactive: > 92 µM and the Potency [7] was inactive: > 92 µM.
In the case of C1COC(NC(C2CC2)C2CC2)=N1, the Potency [4] is reported as inconclusive: 39.8 µM [decreasing].
In the case of CC1=CC(=O)c2ccccc2C1=O, the activity change, negative = inhibition ([1]; at 17.2 µM (top of the series)) is reported as inconclusive: -107% [inhibitor], the activity change, negative = inhibition ([2]; at 17.2 µM (top of the series)) is reported as active: -115% and the activity, negative = inhibition ([3]; at 17.2 µM (top of the series)) is reported as inconclusive: -89% [inhibitor].
For CCOC(=O)C1=C(C)NC(=S)NC1c1cccc(O)c1 (stereo not drawn), the Potency [4] was active: 39.8 µM.
In the case of CC(C)(Sc1ccc(CCN(CCCCC2CCCCC2)C(=O)NC2CCCCC2)cc1)C(=O)O, the activity change, negative = inhibition ([1]; at 38 µM (top of the series)) is reported as inconclusive: -71.8% [inhibitor], the Potency [4] is reported as inconclusive: 39.8 µM [decreasing] and the activity change, negative = inhibition ([2]; at 38 µM (top of the series)) is reported as inconclusive: -105% [inhibitor]. For the same compound, the activity, negative = inhibition ([3]; at 38 µM (top of the series)) was inconclusive: -33.8% [inhibitor].
For CS(=O)(=O)Nc1ccc([N+](=O)[O-])cc1Oc1ccccc1, the activity change, negative = inhibition ([1]; at 17.2 µM (top of the series)) was inactive: 3.78% and inactive: -13.2%, the activity change, negative = inhibition ([1]; at 38 µM (top of the series)) was inactive: -14.2% and the activity, negative = inhibition ([3]; at 17.2 µM (top of the series)) was inactive: -2.4% and inactive: -18.3%. The activity, negative = inhibition ([3]; at 38 µM (top of the series)) was inactive: -25.2%.
For NS(=O)(=O)c1cc(Cl)c(Cl)c(S(N)(=O)=O)c1, the Potency [4] was “inactive” and the activity, negative = inhibition ([3]; at 17.2 µM (top of the series)) was inactive: 9.2%.
In the case of CCOC(=O)c1ncn2c1CN(C)C(=O)c1cc(F)ccc1-2, the Potency [4] is reported as inconclusive: 39.8 µM [decreasing] and the activity, negative = inhibition ([3]; at 38 µM (top of the series)) is reported as inconclusive: 52.5% [activator].
For COc1cc2c(c(OC)c1OC)-c1ccc(OC)c(=O)cc1[C@@H](NC(C)=O)CC2, the Potency [6] was inconclusive: 0.00848 µM [partial modulator], the Potency [8] was inactive: > 92 µM and the Potency [5] was “inactive”.
With CN(C)CCC=C1c2ccccc2C=Cc2ccccc21 the activity change, negative = inhibition ([1]; at 7.69 µM (top of the series)) was inconclusive: 30.2% [activator], the activity change, negative = inhibition ([1]; at 17.2 µM (top of the series)) was inconclusive: 35.5% [activator] and the activity change, negative = inhibition ([1]; at 38 µM (top of the series)) was inconclusive: 52.1% [activator]. For the same compound, the activity change, negative = inhibition ([2]; at 7.69 µM (top of the series)) was active: -78.7%, the activity change, negative = inhibition ([2]; at 17.2 µM (top of the series)) was inconclusive: -27.9% [inhibitor] and the activity change, negative = inhibition ([2]; at 38 µM (top of the series)) was inconclusive: -66.9% [inhibitor]. The activity, negative = inhibition ([3]; at 38 µM (top of the series)) was inconclusive: -34.3% [inhibitor].
In the case of Cc1ccc(S(=O)(=O)N[C@@H](Cc2ccccc2)C(=O)CCl)cc1, the activity change, negative = inhibition ([1]; at 38 µM (top of the series)) is reported as inconclusive: 37.2% [activator] and the activity, negative = inhibition ([3]; at 38 µM (top of the series)) is reported as active: -65.8%.
In the case of Clc1cccc(Cl)c1NC1=NCCN1, the Potency [4] is reported as “inactive”, the Potency [5] is reported as inconclusive: 10 µM [activator, partial curve, poor fit] and the activity change, negative = inhibition [5] is reported as inconclusive: 24.5%.
For Nc1c2c(nc3ccccc13)CCCC2, the Potency [9] was inconclusive: 100 µM [single point], the activity change, negative = inhibition ([2]; at 17.2 µM (top of the series)) was inconclusive: -62.8% [inhibitor] and the activity change, negative = inhibition ([2]; at 38 µM (top of the series)) was inconclusive: -30.7% [inhibitor]. For the same compound, the activity, negative = inhibition ([3]; at 38 µM (top of the series)) was inconclusive: 45.4% [activator].
For Cn1c(=O)c2c(ncn2C)n(C)c1=O, the Potency [4] was inconclusive: 39.8 µM [decreasing] and the Potency [5] was “inactive”.
With CC(C)(S)[C@@H](N)C(=O)O the activity change, negative = inhibition ([1]; at 17.2 µM (top of the series)) was inactive: 0.914%.
For CN1CCN2c3ccccc3Cc3ccccc3C2C1 (stereo not drawn), the activity change, negative = inhibition ([2]; at 17.2 µM (top of the series)) was inconclusive: -75.2% [inhibitor].
For CN[C@H]1[C@@H](O[C@@H]2[C@H](O[C@@H]3[C@@H](O)[C@@H](O)[C@@H](N=C(N)N)[C@@H](O)[C@@H]3N=C(N)N)O[C@H](C)[C@@]2(O)C=O)O[C@@H](CO)[C@@H](O)[C@H]1O, the activity change, negative = inhibition ([1]; at 17.2 µM (top of the series)) was inactive: 4.01%, the activity, negative = inhibition ([3]; at 17.2 µM (top of the series)) was inactive: 0.857% and the Potency [5] was “inactive”.
With COc1ccc(CCN(C)CCCC(C#N)(c2ccc(OC)c(OC)c2)C(C)C)cc1OC (stereo not drawn) the activity change, negative = inhibition ([2]; at 17.2 µM (top of the series)) was inconclusive: -48.1% [inhibitor].
For CC(C)[C@H](CO)Nc1nc(Nc2cccc(Cl)c2)c2ncn(C(C)C)c2n1, the activity change, negative = inhibition ([1]; at 38 µM (top of the series)) was active: -111%, the activity change, negative = inhibition ([2]; at 38 µM (top of the series)) was inconclusive: -122% [inhibitor] and the activity, negative = inhibition ([3]; at 38 µM (top of the series)) was active: -81.5%.
